The other results are listed elsewhere or left out.
What follows are sequences tested on PfAP2-HC AP2 domain (GST-tagged) (assay: gcPBM binding intensity (ln(normalized median fluorescence intensity)); higher = stronger DNA binding).
Method in brief: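 Binding intensity is defined as the maximum Masliner-normalised natural-log median intensity across replicate spots for either probe orientation. It was measured on an Agilent 4 × 180k array of primer-extended double-stranded 36-bp intergenic genomic probes and negative controls, to which GST-tagged P. falciparum DNA-binding domains made in E. coli were applied for 1 h in 1× PBS with 1% milk, 0.2 mg/ml BSA, 0.5% salmon testes DNA and 0.03% Triton X-100. Detection was by Alexa488 anti-GST antibody and scanning at 488 nm.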
With “ATTAAAAAAAAAAGTATACACACTTCTTAATGTCAA [CACACA_site1244]” the “gcPBM binding intensity (ln)” value was 9.54. With “ATGGGTTGTTCAAATAGTACATATGTAGCCCACCAT [XGTACX_site3735]” the “gcPBM binding intensity (ln)” value was 9.65. With “TTTAAATATATATTTAGTACTTATTCTTAAAATTTT [XGTACX_site624]” the “gcPBM binding intensity (ln)” value was 9.51. “TTTTTTTTTTTTTGTGCATGTAGATTTATTGTTATA [TGCATGCA_site582]” was tested, and the “gcPBM binding intensity (ln)” value was 9.61. For “AAAAAAGAATAGCACACACACATATATAAATATAAA [CACACA_site4518]”, the “gcPBM binding intensity (ln)” value was 10.5. “GTAGAGGATTAAGAATGTACACATAAATACATATTT [XGTACX_site8874]” was tested, and the “gcPBM binding intensity (ln)” value was 9.67. In the case of “AATTATACATACATATATATATTTATATATATATAT [GTGCAC_negctrl_site462]”, the “gcPBM binding intensity (ln)” value is reported as 9.83. In the case of “GTTACATACAGATACACACACATATATATATATATA [CACACA_site4652]”, the “gcPBM binding intensity (ln)” value is reported as 10.7. With “TTTTTTTTTTTTTTAATTAATTACCTTTGAATGTGT [CACACA_negctrl_site393]” the “gcPBM binding intensity (ln)” value was 9.53. TAATAATTTTATAAAGTGCATAAAAATAAAAATTTT was tested, and the “gcPBM binding intensity (ln)” value was 9.51. With “AACAAATAAACAAAATTGGAAAATAAAAATATCAAA [CACACA_negctrl_site1125]” the “gcPBM binding intensity (ln)” value was 9.73. For “TCGTATATGGATTTTGCACACAATTTTAATTTAAAT [CACACA_site4635]”, the “gcPBM binding intensity (ln)” value was 9.91. “ATGATTTGTCTGAAATGTACATATATATATATATAT [XGTACX_site5247]” was tested, and the “gcPBM binding intensity (ln)” value was 9.7. In the case of “GAAAAAATATATAAATGTACATATAATAATATCATA [XGTACX_site6788]”, the “gcPBM binding intensity (ln)” value is reported as 9.69. “ATATATATTTTATTATGTACATATAAATATTACACA [XGTACX_site4062]” was tested, and the “gcPBM binding intensity (ln)” value was 9.57. “ATTATTTTTTTATGTTGTACATAATATTTTTTAAAA [XGTACX_site1666]” was tested, and the “gcPBM binding intensity (ln)” value was 9.61. In the case of “ATATATATGGATGGACGTACGTATGTATGTAATTTC [XGTACX_site4135]”, the “gcPBM binding intensity (ln)” value is reported as 9.97. With “TTCCAACATTGTTTTTGTACATAATTAACTGTTATT [XGTACX_site5224]” the “gcPBM binding intensity (ln)” value was 9.99. In the case of “CTTAAAAATAACTGCACACAAAAATAAATACCTTAT [CACACA_site2793]”, the “gcPBM binding intensity (ln)” value is reported as 10. In the case of “TAATATTTATAAAATAGTACACAGAAAAAGCATTTT [XGTACX_site8948]”, the “gcPBM binding intensity (ln)” value is reported as 9.67. For “TAATAATGCAACCTCTGTACACAACATTATATCCAT [XGTACX_site7596]”, the “gcPBM binding intensity (ln)” value was 9.76. “AAAAAAAAATTTTTAAAATTTAGAAAATTTAAAAAA [GTGCAC_negctrl_site649]” was tested, and the “gcPBM binding intensity (ln)” value was 9.2. For “TATATATAAGCGTGTACACATTCTGAGTGTTGTATA [CACACA_site4502]”, the “gcPBM binding intensity (ln)” value was 9.73. “ATATTTAATGTTAATTGTACATATTATATATATATA [XGTACX_site6095]” was tested, and the “gcPBM binding intensity (ln)” value was 9.73. In the case of “GATTATACAAAATATACACACGTGTAGACAAATATT [CACACA_site4785]”, the “gcPBM binding intensity (ln)” value is reported as 9.98.

From the supplement of paper PMC11417369
